Reference: a collection of fitness landscapes (doi:10.1126/science.1257360)
Some of the results follow.

B1: PhoQ; a variant is named by its letters at X, in order, P23837 (parent)
chain: MKKLLRLFFPLSLRVRFLLATAAVVLVLSLAYGMVALIGYSVSFDKTTFRLLRGESNLFYTLAKWENNKLHVELPENIDKQSPTMTLIYDENGQLLWAQRDVPWLMKMIQPDWLKSNGFHEIEADVNDTSLLLSGDHSIQQQLQEVREDDDDAEMTHSVAVNVYPATSRMPKLTIVVVDTIPVELKSSYMVWSWFIYVLSANLLLVIPLLWVAAWWSLRPIEALAKEVRELEEHNRELLNPATTRELTSLVRNLNRLLKSERERYDKYRTTLTDLTHSLKTPLXXLQXXLRSLRSEKMSVSDAEPVMLEQISRISQQIGYYLHRASMRGGTLLSRELHPVAPLLDNLTSALNKVYQRKGVNISLDISPEISFVGEQNDFVEVMGNVLDNACKYCLEFVEISARQTDEHLYIVVEDDGPGIPLSKREVIFDRGQRVDTLRPGQGVGLAVAREITEQYEGKIVAGESMLGGARMEVIFGRQHSAPKDE

Variants of: B1
Assay: enrichment ratio after two sorts for PhoP signalling (ratio (wild type AVST 3.29)); higher = more functional
Details: with PhoP (E. coli)

Variant | enrichment ratio
DNWK | ≤ 0.25
IFFY | ≤ 0.25
RSLW | ≤ 0.25
SGPA | ≤ 0.25
SHIW | ≤ 0.25
VHND | ≤ 0.25
SKQM | 1.77
SEWY | ≤ 0.25
DYIR | ≤ 0.25
DVYK | ≤ 0.25
ASWA | ≤ 0.25
NTLG | ≤ 0.25
VRFI | ≤ 0.25
KHPQ | ≤ 0.25
VCHE | ≤ 0.25
SSKE | ≤ 0.25
QDRK | ≤ 0.25
KFVS | ≤ 0.25
LKLF | ≤ 0.25
VRLW | ≤ 0.25
NDMV | 1.88
VEAR | ≤ 0.25
TLRG | ≤ 0.25
TLMD | ≤ 0.25
NWRV | ≤ 0.25

Variant | enrichment ratio
QYNM | ≤ 0.25
RGHR | ≤ 0.25
RDKV | ≤ 0.25
RKNC | ≤ 0.25
RWVA | ≤ 0.25
KYES | ≤ 0.25
LQFW | ≤ 0.25
RENS | ≤ 0.25
HTDV | ≤ 0.25
QKWN | ≤ 0.25
HIWF | ≤ 0.25
MSRC | ≤ 0.25
CSFP | ≤ 0.25
PESD | ≤ 0.25
FYSR | ≤ 0.25
TWNA | ≤ 0.25
LRKT | ≤ 0.25
FNFL | ≤ 0.25
RLGI | ≤ 0.25
SGNV | 1.81
FDHN | ≤ 0.25
SGKQ | ≤ 0.25
LYRN | ≤ 0.25
LDQT | ≤ 0.25
ARIR | ≤ 0.25

Variant | enrichment ratio
QLHA | ≤ 0.25
TVLN | ≤ 0.25
QARY | ≤ 0.25
SNHL | ≤ 0.25
RATY | ≤ 0.25
ADLQ | 3.02
SEYY | 4.69
WSLW | ≤ 0.25
GRGS | ≤ 0.25
MECT | 9.55
IRYD | ≤ 0.25
EHMS | ≤ 0.25
YAWI | ≤ 0.25
NTPC | ≤ 0.25
ITKA | ≤ 0.25
VIQY | ≤ 0.25
MQEH | ≤ 0.25
LFSI | ≤ 0.25
ITRG | ≤ 0.25
TYCH | 2.52
ERQP | ≤ 0.25
YMLC | ≤ 0.25
AVTM | 12.4
FANH | ≤ 0.25
VHDA | ≤ 0.25

Variant | enrichment ratio
SRRY | ≤ 0.25
VFIG | ≤ 0.25
LCFF | ≤ 0.25
DSVR | ≤ 0.25
DKRL | ≤ 0.25
GNGS | ≤ 0.25
PFMA | ≤ 0.25
NCDL | ≤ 0.25
KITW | ≤ 0.25
NGYM | ≤ 0.25
RYPY | ≤ 0.25
YNFN | ≤ 0.25
FMDF | ≤ 0.25
QHPL | ≤ 0.25
AFWW | ≤ 0.25
PYAM | ≤ 0.25
FEWR | ≤ 0.25
ASWI | 2.59
STYP | ≤ 0.25
NMHN | ≤ 0.25
VSPW | ≤ 0.25
NDWV | ≤ 0.25
SHAD | ≤ 0.25
FRWS | ≤ 0.25
QDGC | ≤ 0.25

Variant | enrichment ratio
EVYS | ≤ 0.25
NVRR | ≤ 0.25
HIYL | 0.291
EYKE | ≤ 0.25
RNVS | ≤ 0.25
VENL | ≤ 0.25
DQYT | ≤ 0.25
IGWY | ≤ 0.25
RTNC | ≤ 0.25
IIVF | ≤ 0.25
DKSE | ≤ 0.25
VIDY | ≤ 0.25
NICI | ≤ 0.25
RLIW | ≤ 0.25
DWGM | ≤ 0.25
MGMC | 5.27
HNSN | ≤ 0.25
TAMM | 2.2
FVSK | ≤ 0.25
QCHV | ≤ 0.25
VKHF | ≤ 0.25
YIIQ | ≤ 0.25
DLFT | ≤ 0.25
QWNI | ≤ 0.25
DKAL | ≤ 0.25

Variant | enrichment ratio
AYSR | ≤ 0.25
RRDS | ≤ 0.25
EAFI | ≤ 0.25
PMAI | ≤ 0.25
LMMP | ≤ 0.25
VCSI | 1.75
IPPR | ≤ 0.25
RYAT | ≤ 0.25
QAMT | ≤ 0.25
PNHA | ≤ 0.25
DGMQ | ≤ 0.25
HSIR | ≤ 0.25
GLKV | ≤ 0.25
KAAN | ≤ 0.25
CHFH | ≤ 0.25
QIYG | ≤ 0.25
LNIL | ≤ 0.25
TDFL | ≤ 0.25
PTKY | ≤ 0.25
FWTY | ≤ 0.25
GGGF | ≤ 0.25
YNYC | ≤ 0.25
RKAK | ≤ 0.25
WLYT | ≤ 0.25
ARWW | ≤ 0.25

Variant | enrichment ratio
HSKM | ≤ 0.25
PVRQ | ≤ 0.25
TRPR | ≤ 0.25
IVMH | ≤ 0.25
GTYG | ≤ 0.25
NTLQ | ≤ 0.25
VPPV | ≤ 0.25
WFWV | ≤ 0.25
YIHT | ≤ 0.25
DQWN | ≤ 0.25
KKWM | ≤ 0.25
AYEF | ≤ 0.25
TNKY | ≤ 0.25
HEWP | ≤ 0.25
DVGK | ≤ 0.25
VTRE | ≤ 0.25
GVAW | 4.77
SIPC | 1.34
RSIE | ≤ 0.25
WEKL | ≤ 0.25
MRLQ | ≤ 0.25
ITKL | ≤ 0.25
AHCM | 9.33
YGAF | ≤ 0.25
PRID | ≤ 0.25

Variant | enrichment ratio
HSYE | ≤ 0.25
ITFE | ≤ 0.25
SMQM | 20.4
FNAE | ≤ 0.25
YHAY | ≤ 0.25
AMCH | 8.89
QMDC | ≤ 0.25
THGY | 13.8
LWVV | ≤ 0.25
VVDL | ≤ 0.25
MELF | 0.528
TNPY | ≤ 0.25
FKNY | ≤ 0.25
SEFC | 10.4
TDFI | ≤ 0.25
FPDK | ≤ 0.25
NLCP | ≤ 0.25
KVDG | ≤ 0.25
KDIY | ≤ 0.25
FFGQ | ≤ 0.25
